In PubChem BioAssay AID686971 (National Center for Advancing Translational Sciences (NCATS), 2013):
Where “and” joins values, the source holds several entries; their conditions need not be identical. Identical values can stand only once. The whole screen tested about 360,000 compounds, of which about 7,500 (2.1%) were called active. Inconclusive means that the source gave no clear call. Such entries were picked first, then a sample of the others. The call rests on the fitted dose curve; in most records, active means well fitted cell-killing curve with a large enough effect; inconclusive means small, poorly fitted or top-dose-only effect, or effect the other way, or another doubt; inactive means no such curve, though single readings can be large or run the other way. Where the call is inconclusive, the potency comes from a doubtful curve fit.
Potency means the concentration at half of the fitted maximal effect; tags describe the fitted curve by direction and shape.

Assay: qHTS for induction of synthetic lethality in tumor cells producing 2HG: qHTS for the HT-1080-IDH1KD cell line;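 on activity, negative = toxicity: 0% = DMSO wells and -100% = cell-free medium wells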
Conditions: HT-1080 IDH1 knockdown viability, ATP luminescence, 48 h; activity, negative = toxicity: at 46.1 µM (top of the series) unless noted
Procedure, shortened: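 Luminescent ATP read-out (CellTiter-Glo, 10 min at room temperature) after 48 h compound exposure at 37 °C gave viability of IDH1-knockdown HT-1080 cells. Activity was normalised to DMSO and cell-free wells, then fitted as concentration-response curves.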
With COc1cccc(/C=N/NC(=O)c2ccc(-n3cnnn3)cc2)c1 the Potency was inconclusive: 32.6 µM [cytotoxic, single point].
With Cc1ccc(-c2cn(-c3ccccc3)c3[n+]2CCCS3)cc1 the Potency was inconclusive: 25.9 µM [cytotoxic, partial curve] and inconclusive: 9.2 µM [cytotoxic, partial curve, poor fit].
In the case of O=C(CN1CCCC1)Nc1ccc(-c2nc3cc(NC(=O)CN4CCCC4)ccc3o2)cc1, the Potency is reported as inconclusive: 5.8 µM [cytotoxic, full curve].
In the case of Oc1ccccc1CN(Cc1ccco1)CC(O)COCc1ccc(Cl)cc1 (stereo unspecified), the Potency is reported as inconclusive: 32.6 µM [cytotoxic, partial curve].
With O=C(Nc1ccncc1)c1c(Cl)cccc1Cl the “activity, negative = toxicity” value was inactive: -3.05%.
In the case of Cc1c(C(=O)NCc2cccnc2)oc2ccc(S(=O)(=O)N3CCCC(C)C3)cc12 (stereo unspecified), the Potency is reported as inconclusive: 18.4 µM [cytotoxic, partial curve].
For COc1ccccc1N1CCN(C(=O)c2ccc3ncsc3c2)CC1, the Potency was active: 8.2 µM.
With O=C(NC1CCCCNC1=O)c1ccco1 (stereo unspecified) the “activity, negative = toxicity” value was inactive: -0.999%.
In the case of Cc1ccccc1/C=C/C(=O)c1ccc([N+](=O)[O-])o1, the activity, negative = toxicity is reported as inconclusive: -20.1% [cytotoxic].
In the case of C#CC(=O)N(c1ccc(OC)cc1OC)C(C(=O)NC1CCCC1)c1cccs1 (stereo unspecified), the Potency is reported as inconclusive: 0.0366 µM [cytotoxic, full curve, poor fit].
With CCC(C)C1/C=C\CC(NC(=O)OCC2c3ccccc3-c3ccccc32)CC(=O)N1Cc1ccccc1 (stereo unspecified) the Potency was inconclusive: 16.4 µM [cytotoxic, partial curve].
In the case of CN1CCN(C(c2ccc(F)cc2)c2nnnn2Cc2cccs2)CC1 (stereo unspecified), the “activity, negative = toxicity” value is reported as inactive: -0.182%.
With c1ccc(CN2CCC(Nc3nc(-c4cccnc4)nc4ccccc34)CC2)cc1 the Potency was active: 20.6 µM.
With CC1CCCCC12NC(=O)N(CC(=O)N1CCN(Cc3ccc(C#N)cc3)CC1)C2=O (stereo unspecified) the “activity, negative = toxicity” value was inactive: -15.4%.
For CC1CCC(C(O)(C(=O)c2ccccc2)c2ccccc2)C(=O)C1 (stereo unspecified), the Potency was inconclusive: 32.6 µM [cytotoxic, single point].
For O=C(Nc1ccc(Cl)cc1)N(Cc1cccs1)Cc1cccs1, the Potency was inconclusive: 18.4 µM [cytotoxic, single point].
With O=C(O)c1sccc1Oc1ccc(NS(=O)(=O)c2cccc(F)c2)cc1 the Potency was inconclusive: 25.9 µM [rising, single point].
In the case of COc1cccc([C@@H]2CC=C(C(=O)O)CN2S(=O)(=O)c2ccc(C)cc2)c1, the “activity, negative = toxicity” value is reported as inactive: -0.198%.
With CC(C)S(=O)(=O)NC(=O)C1(C)CCN1C(=O)Cc1ccccc1Cl (stereo unspecified) the Potency was inconclusive: 20.6 µM [rising, single point].
For Nc1ccc(C(=O)N/N=C\c2cc(N=Nc3cccc4ccccc34)ccc2O)cc1, the Potency was active: 11.6 µM.
For O=C1C(Cl)=C(Nc2ccc(O)cc2)C(=O)c2ccccc21, the Potency was active: 16.4 µM.
With CCOC(=O)c1c(NS(=O)(=O)c2cccc(OC)c2)sc2c1CCC2 the Potency was inconclusive: 35.5 µM [cytotoxic, single point].
With CCOc1ccccc1N1CCN(C(=O)c2cc3ccccc3cc2OC)CC1 the Potency was active: 5.17 µM.
For Cc1nn(-c2ccccc2)c(C)c1P(=O)(c1ccccc1)N(C)C (stereo unspecified), the activity, negative = toxicity was inconclusive: 40.3%.
For CCCN1C(=O)S/C(=C\c2ccc(N3CCOCC3)o2)C1=O, the Potency was inconclusive: 29.1 µM [cytotoxic, single point].
With CCN1CCCc2cc(CN(CCN3CCOCC3)C(=O)Nc3ccc(C)c(C)c3)ccc21 the “activity, negative = toxicity” value was inactive: -17.7%.
With Cc1cccn2cc(COc3ccc(-c4ccccc4)cc3)nc12 the Potency was active: 18.4 µM.
For CC(C)Cc1ccc(S(=O)(=O)Nc2cccnc2)cc1, the Potency was inconclusive: 25.9 µM [cytotoxic, single point].
In the case of COc1ccc2oc(/C=C/N(C)C)c(C(=O)c3ccc(Cl)cc3)c2c1, the Potency is reported as inconclusive: 35.5 µM [cytotoxic, single point].
With O=[N+]([O-])c1cccnc1C1OCCO1 the “activity, negative = toxicity” value was inactive: 14.9%.
In the case of CC1=NN(c2ccccc2)C(=O)C1C=Nc1ccccc1O (stereo unspecified), the Potency is reported as inconclusive: 29.1 µM [cytotoxic, single point].
In the case of COc1ccc(Nc2oc(COc3ccc(Cl)cc3)nc2C#N)cc1, the Potency is reported as inconclusive: 29.1 µM [cytotoxic, single point].
With O=C(NN=Cc1cccc(O)c1O)c1ccccc1 the Potency was inconclusive: 1.84 µM [cytotoxic, partial curve, poor fit].
For Cc1ccc(/C=N/NC(=O)c2ccncc2)s1, the “activity, negative = toxicity” value was inactive: 3.1%.
For CC1=CSC2=NS(=O)(=O)CCN12, the “activity, negative = toxicity” value was inactive: -0.403%.
In the case of CCCNC(=O)C1(C)CCN(C(=O)C2(c3ccc(Cl)cc3)CCCC2)C1 (stereo unspecified), the “activity, negative = toxicity” value is reported as inactive: 0.62%.
In the case of CC(C)Oc1ccc(C(=O)OC(C)C(=O)Nc2nc(-c3cccc([N+](=O)[O-])c3)cs2)cc1 (stereo unspecified), the “activity, negative = toxicity” value is reported as inactive: -1.91%.
In the case of Cc1c(C(=O)N2CCC(n3nccc3NC(=O)C3CC3)CC2)[nH]c2ccc(Cl)cc12, the Potency is reported as inconclusive: 29.1 µM [cytotoxic, single point].
For COc1cccc(-c2noc(CCCC(=O)NC3CCCC3)n2)c1, the “activity, negative = toxicity” value was inactive: -14.3%.
In the case of COc1cccc(CN2CCN(Cc3cc(OC)c(OC)cc3[N+](=O)[O-])CC2)c1, the “activity, negative = toxicity” value is reported as inactive: 1.75%.
For COc1ccccc1CC(=O)Nc1ccc(-c2noc(COc3ccc(Br)cc3)n2)cc1, the Potency was inconclusive: 29.1 µM [cytotoxic, single point].
With C=CC(=O)Nc1cccc(Nc2nc(N[C@H]3CC[C@H](N(C)C)CC3)nc3c2ncn3C(C)C)c1 the Potency was active: 0.651 µM.
In the case of Cc1ccc(/C=C/c2nc3ccccc3s2)s1, the Potency is reported as inconclusive: 14.6 µM [cytotoxic, single point].
With COc1cc(C2C(C#N)=C(N)OC3=C2C(=O)CC(C)(C)C3)cc2c1OCO2 (stereo unspecified) the “activity, negative = toxicity” value was inactive: -12.7%.
With Nc1ccn(C2OC(CCl)C(O)C2O)c(=O)n1 (stereo unspecified) the Potency was inconclusive: 25.9 µM [cytotoxic, single point].
For CC(NC(=O)CN(C)Cc1cccc(F)c1)c1ccccc1 (stereo unspecified), the “activity, negative = toxicity” value was inactive: 18.4%.
In the case of Cc1ccccc1C(=O)NNC(=O)C1CC(=O)N(c2ccc3c(c2)OCCO3)C1 (stereo unspecified), the “activity, negative = toxicity” value is reported as inactive: 14.5%.
With COC(=O)[C@]12CCCCC=C1N(Cc1ccccc1)C(=O)[C@H](CC(=O)NCc1ccccc1)C2 the activity, negative = toxicity was inconclusive: -32.5% [cytotoxic].
With Cc1ccccc1N1CCN(C2=NC(=O)/C(=C\c3cccs3)S2)CC1 the Potency was inconclusive: 29.1 µM [cytotoxic, single point].
In the case of COC(=O)c1cc(NC(=O)CN2C(=O)C(=O)N(C3CCCC3)C2=O)cc(C(=O)OC)c1, the “activity, negative = toxicity” value is reported as inactive: 1.43%.
For CCN1C(=NCc2ccc(OC)cc2)N[C@@H](c2ccccc2)C(C(=O)OC)=C1C, the “activity, negative = toxicity” value was inactive: -5.81%.
In the case of Cc1ccc(NS(=O)(=O)c2ccc(-c3csc(C)n3)s2)c(C)c1, the Potency is reported as inconclusive: 14.6 µM [cytotoxic, partial curve].
With COc1ccc(C(=O)Nc2ccc(O)c3c(=O)cc(-c4cccc(Cl)c4)oc23)cc1 the Potency was inconclusive: 16.4 µM [cytotoxic, single point].
For COc1ccc(CNC(=O)C2CCN(C(=O)c3sccc3-n3cccc3)CC2)cc1, the “activity, negative = toxicity” value was inactive: 2.9%.
With Cc1ccc(S(=O)(=O)N(C)C[C@@H]2OCCCC[C@@H](C)Oc3ccc(NS(=O)(=O)c4c(C)noc4C)cc3C(=O)N([C@H](C)CO)C[C@@H]2C)cc1 the “activity, negative = toxicity” value was inactive: -22.4%.
For O=c1[nH]c2cc3c(cc2cc1C(c1nnnn1Cc1ccccc1)N1CCCc2ccccc21)OCO3 (stereo unspecified), the Potency was inconclusive: 3.16 µM [cytotoxic, single point].
With Cc1cc2c(C)cc(=O)[nH]c2cc1NC(=O)CCl the Potency was inconclusive: 20.6 µM [cytotoxic, partial curve].
In the case of Cc1ccc(Cl)cc1NC1=C/C(=N\S(=O)(=O)c2cccs2)c2ccccc2C1=O, the Potency is reported as active: 4.11 µM and active: 4.61 µM.
With CC(=O)Nc1ccc(Nc2ccc3c4c(cc(=O)n3C)-c3ccccc3C(=O)c24)cc1 the “activity, negative = toxicity” value was inactive: -1.83%.
With CCCCCCCc1ccc(-c2ccc(O)cc2)nc1 the Potency was inconclusive: 29.1 µM [cytotoxic, single point].
With Cc1cc(N(CCO)CCO)ccc1N=Nc1cc(F)ccc1F the Potency was inconclusive: 18.4 µM [cytotoxic, single point].
For Clc1ccc(-c2nnc(COc3ncnc4sccc34)o2)cc1, the “activity, negative = toxicity” value was inactive: 9.58%.
For COc1ccccc1NC(=O)N1CCN(c2ccc3nnc(-c4ccc(F)cc4)n3n2)CC1, the Potency was inconclusive: 16.4 µM [cytotoxic, partial curve].
With C[C@H](CO)N1C[C@H](C)[C@@H](CN(C)Cc2ccccc2)Oc2c(NC(=O)Cc3ccccc3)cccc2C1=O the Potency was inconclusive: 16.4 µM [cytotoxic, single point].
In the case of Cc1nnc(SCC(=O)N(C2CCCCC2)C2CCS(=O)(=O)C2)n1N (stereo unspecified), the “activity, negative = toxicity” value is reported as inactive: 12.5%.
In the case of C=CC[C@@H](CC(=O)N[C@H](CO)Cc1ccccc1)C(=O)N[C@H](COC(=O)[C@H](CC=C)CC(=O)OC(C)(C)C)Cc1c[nH]c2ccccc12, the Potency is reported as inconclusive: 29.1 µM [cytotoxic, single point].
In the case of CCOC(=O)c1c(C)n(-c2ccc(C)cc2)c2ccc(OCC(O)CNCCCO)cc12 (stereo unspecified), the Potency is reported as active: 23.1 µM.
With Cc1ccc(NS(=O)(=O)c2cc(C(=O)NCCSC3CCCCC3)ccc2C)cc1 the Potency was inconclusive: 28.2 µM [cytotoxic, single point].
For COc1ccc(-c2cc(C(F)F)n3ncc(C(=O)NCC4CCCO4)c3n2)cc1 (stereo unspecified), the Potency was inconclusive: 25.9 µM [cytotoxic, partial curve].
In the case of C=C(C)COc1ccc2c(c1)CCC1C2CCC2(C)C(=O)C(=NO)CC12 (stereo unspecified), the activity, negative = toxicity is reported as inconclusive: -15% [cytotoxic].
In the case of COC(=O)[C@]12CCCCC=C1N(CCc1ccc(OC)c(OC)c1)C(=O)[C@H](CC(=O)NCC13CC4CC(CC(C4)C1)C3)C2, the Potency is reported as inconclusive: 29.1 µM [cytotoxic, single point].
